The whole screen tested about 310,000 compounds, of which about 2,200 (0.71%) showed an effect of 50% or more. The effect is printed as a negative number. This is one part of the list.
Each compound was assayed against human ether-à-go-go-related gene (hERG) potassium channel (human, UniProt Q12809) (assay: primary screen, population patch clamp on CHO cells stably expressing hERG).
Sequence of human ether-à-go-go-related gene (hERG) potassium channel (Q12809 whole entry, looked up): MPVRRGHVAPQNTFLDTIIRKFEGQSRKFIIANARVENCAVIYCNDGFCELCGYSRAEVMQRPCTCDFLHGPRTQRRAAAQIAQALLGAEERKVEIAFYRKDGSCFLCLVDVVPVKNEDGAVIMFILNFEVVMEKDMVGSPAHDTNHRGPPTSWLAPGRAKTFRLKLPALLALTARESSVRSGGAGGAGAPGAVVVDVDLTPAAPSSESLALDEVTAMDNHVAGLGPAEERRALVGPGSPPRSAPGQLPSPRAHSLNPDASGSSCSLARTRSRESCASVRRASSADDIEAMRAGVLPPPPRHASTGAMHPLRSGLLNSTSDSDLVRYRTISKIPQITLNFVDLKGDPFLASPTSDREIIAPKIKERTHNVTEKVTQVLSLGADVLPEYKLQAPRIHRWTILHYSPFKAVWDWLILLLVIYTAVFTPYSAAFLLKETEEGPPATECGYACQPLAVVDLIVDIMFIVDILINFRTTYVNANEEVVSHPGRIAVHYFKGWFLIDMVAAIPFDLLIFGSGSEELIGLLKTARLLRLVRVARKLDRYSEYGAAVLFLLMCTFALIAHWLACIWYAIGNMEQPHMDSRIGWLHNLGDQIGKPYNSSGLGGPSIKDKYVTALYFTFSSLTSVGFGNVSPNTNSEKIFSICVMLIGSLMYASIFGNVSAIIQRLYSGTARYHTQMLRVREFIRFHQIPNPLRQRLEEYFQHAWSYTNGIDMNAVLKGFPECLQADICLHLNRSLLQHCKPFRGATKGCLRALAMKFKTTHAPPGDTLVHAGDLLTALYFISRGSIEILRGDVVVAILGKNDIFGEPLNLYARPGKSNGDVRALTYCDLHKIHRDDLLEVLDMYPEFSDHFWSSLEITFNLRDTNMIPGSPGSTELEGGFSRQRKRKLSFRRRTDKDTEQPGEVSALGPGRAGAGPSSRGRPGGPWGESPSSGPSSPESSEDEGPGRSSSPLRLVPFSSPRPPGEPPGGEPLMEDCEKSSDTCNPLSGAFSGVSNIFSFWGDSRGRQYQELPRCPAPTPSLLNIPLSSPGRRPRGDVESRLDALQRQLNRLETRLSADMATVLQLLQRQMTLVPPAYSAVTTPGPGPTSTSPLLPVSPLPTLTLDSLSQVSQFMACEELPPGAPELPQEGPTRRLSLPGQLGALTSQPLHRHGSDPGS

| Structure (SMILES) | hERG current change (%, negative = inhibition) at 1uM [%] |
| --- | --- |
| COc1ccc(C(=O)NCc2cccs2)cc1S(=O)(=O)N1CCOCC1 | 18.4 |
| Cc1cccc(Nc2nc3c(S(=O)(=O)c4ccccc4)nnn3c3ccccc23)c1C | 5.16 |
| O=C(c1cccs1)N1CCN(S(=O)(=O)c2cccs2)CC1 | 7.82 |
| Cc1ccc(CNC(=O)CC2Sc3ccccc3NC2=O)cc1 (centres unmarked) | 20.1 |
| COc1ccc(NC(=O)c2sc3nc(N4CCCC4)c4c(c3c2N)CC(C)(C)OC4)cc1 | 12.7 |
| COc1ccc2cc(C(c3nnnn3CC3CCCO3)N3CCOCC3)c(=O)[nH]c2c1 (centres unmarked) | 5.7 |
| COc1cc(NS(=O)(=O)c2ccc(N/C=C\C(=O)c3ccc(F)cc3)cc2)nc(OC)n1 | 3.47 |
| CCCCNC(=O)/C(=C/c1ccccc1)NC(C)=O | 1.06 |
| COc1ccccc1N1CCN(C(=O)c2c(-c3c(Cl)cccc3Cl)noc2C)CC1 | 9.91 |
| O=C(O)C(Cc1c[nH]c2ccccc12)NS(=O)(=O)c1ccc(Cl)cc1 (centres unmarked) | 8.72 |
| O=C(CCc1nnc2ccc(N3CCC4(CC3)OCCO4)nn12)Nc1cc(F)ccc1F | 0.794 |
| O=C(O)c1ccccc1C(=O)N1CCN(C(=O)c2ccccc2Cl)CC1 | 8 |
| CC(Oc1ccccc1)C(=O)N1CCC2(CC1)Oc1ccc(F)cc1C(=O)C21CC(c2cccnc2)=NO1 (centres unmarked) | 0.202 |
| C(=N\Nc1nncn1/N=C/c1ccco1)/c1ccco1 | 5.14 |
| O=C1CN(S(=O)(=O)c2ccc(Cl)cc2)c2ccccc2N1 | 7.61 |
| CC(=O)c1ccc(-n2nnnc2SCC(=O)N2CCN(C(=O)c3ccco3)CC2)cc1 | -19.7 |
| COc1ccc2c(c1)c1ncn(CC3CCCO3)c(=O)c1n2C (centres unmarked) | 9.57 |
| O=C(Cn1c(-c2cncs2)nc2ccccc21)NCCc1ccccc1 | 7.72 |
| CC(=O)Nc1cccc(Nc2nc(-c3ccccc3)nc3ccccc23)c1 | 3.93 |
| CCCn1cc(C(CC(=O)O)C(=O)O)c2ccccc21 (centres unmarked) | -0.584 |
| O=C(NCCCN1CCOCC1)c1ccc(NS(=O)(=O)c2cccc([N+](=O)[O-])c2)cc1 | -21.1 |
| CC1(C)OC(=O)N(CCC(=O)Nc2cccc(F)c2)C1(C)O (centres unmarked) | 4.7 |

| Structure (SMILES) | hERG current change (%, negative = inhibition) at 1uM [%] |
| --- | --- |
| COCC1CCCN(C(=O)c2ccc(OC3CCN(Cc4ccccn4)CC3)cc2)C1 (centres unmarked) | 10.3 |
| O=C(CNC(=O)OCc1ccccc1)NC1CCCCCCC1 | 6.4 |
| CN1CCC(OC(=O)c2ccc(Br)cc2)CC1.Cl | -14.7 |
| COc1cc(NC(=O)CSc2nc(=O)n(CCN3CCOCC3)c3c2CCCC3)cc(OC)c1 | -0.157 |
| COc1cc(NC(=O)C(C)N2CCN(C(=O)C3CC3)CC2)cc(OC)c1 (centres unmarked) | 0.782 |
| Br.Cc1ccccc1Cn1c(=N)n(CC(=O)c2ccc([N+](=O)[O-])cc2)c2ccccc21 | 0.624 |
| Cc1ccc(-c2noc(CCC(=O)NCC3CCN(Cc4cccc(C)c4)CC3)n2)cc1 | -17.1 |
| O=C(Nc1ccc(-n2ccc(C(F)(F)F)n2)cc1)c1cccs1 | 10.8 |
| Cc1cc(-c2nnc(SCC(=O)Nc3ccccn3)o2)no1 | 17 |
| CCOC(=O)C1=C(SCC)c2cc3c(n2C1=O)CCCC3 | 8.72 |
| COc1ccc(NC(=O)N(CCc2ccccc2)Cc2cc3c(C)cc(C)cc3[nH]c2=O)cc1 | 14.1 |
| O=C(/C=C/c1ccccc1)NNc1ccc(Cl)cc1 | 6.93 |
| COc1cc(NC(=O)COC(=O)CC(C)(C)C)c(C)cc1[N+](=O)[O-] | 2.73 |
| CCOc1ccccc1C1C(C#N)=C(N)SC(N)=C1C#N | 14 |
| COc1ccc(N2C3=[N+](CCCC3)CC2(C)O)cc1.[Br-] (centres unmarked) | -5.27 |
| CC1CCCN(S(=O)(=O)c2ccc(NC(=O)C3CC(=O)N(C(C)(C)C)C3)cc2)C1 (centres unmarked) | 0.456 |
| CCC(SC1=NCCS1)C(=O)Nc1nnc(-c2ccccc2OC)s1 (centres unmarked) | 7.9 |
| COc1ccc(NS(=O)(=O)c2ccc(OC)c(NC(=O)CNC(=O)c3ccc(OC)cc3)c2)cc1 | 2.4 |
| COc1cc(/C=N/NC(=O)c2ccc(NC(=O)C3CCCCC3)cc2)ccc1O | 18.5 |
| Cc1sc(NC(=O)c2ccc(=O)n(C)n2)nc1-c1ccccc1 | 11 |
| Cc1c(CCOC(=O)c2cc([N+](=O)[O-])cc([N+](=O)[O-])c2)sc[n+]1CC(=O)c1ccccc1.[Cl-] | 2.06 |
| CCOC(=O)c1[nH]cnc1C(=O)Nc1cccc(Cl)c1 | 15.6 |

| Structure (SMILES) | hERG current change (%, negative = inhibition) at 1uM [%] |
| --- | --- |
| COc1cc2ccccc2cc1C(=O)N(CCN(C)C)c1nc2c(F)cc(F)cc2s1.Cl | 12.7 |
| Cc1cc(SCc2ccc(Cl)cc2)nc(=O)[nH]1 | 14.7 |
| CCN(CC)S(=O)(=O)c1cc(NC(=O)CN2CCN(c3ccccn3)CC2)ccc1C | -2.35 |
| CCCCn1c(N)c(N(CCOC)C(=O)c2cccc(-n3cnnn3)c2)c(=O)[nH]c1=O | -0.783 |
| CC(=O)Nc1ccc2c(c1)nc(CCNC(=O)c1ccco1)n2C | 14.9 |
| Cc1cccc(N2CC(C(=O)Nc3nnc(SCCN4CCOCC4)s3)CC2=O)c1 (centres unmarked) | 11.3 |
| COc1cc(OC)cc(C(=O)N2CCN(C(=O)c3ccc(-c4ccccc4)cc3)CC2)c1 | -9.78 |
| S=c1nc(COc2ccccc2)[nH]c2ccccc12 | 14 |
| COc1ccc(-c2cn(CCc3c[nH]c4ccccc34)nn2)cc1 | 7.02 |
| Cc1ncoc1C(=O)NC1CC(C)(C)Cc2c1cnn2-c1ccccc1 (centres unmarked) | -3.92 |
| COc1ccc(/C(=N\O)c2nccc3cc(OC)c(OC)cc23)cc1OC | 15.7 |
| Cc1ccc(NC2c3ncccc3C(=O)N2Cc2ccc(F)cc2)cc1 (centres unmarked) | -8.67 |
| Cc1ccc(NC(=O)CCS(=O)(=O)c2ccc3c(c2)NC(=O)C(C)S3)cc1Cl (centres unmarked) | 15 |
| Nc1nnnn1/N=C/c1ccc(O)cc1 | 13.8 |
| Cc1ccc2c(c1)c1c(n2CCc2ccc(C)nc2)CCN(C)C1 | 8.94 |
| O=C(Nc1ccccc1N1CCCC1)c1ccc2ccccc2c1 | 13.3 |
| COC(=O)c1[nH]c(C)c(/C(O)=C2\C(=O)C(=O)N(CCN(C)C)C2c2ccccc2OC)c1C (centres unmarked) | 13.8 |
| Cc1cccc(NC(=O)C2CCN(S(C)(=O)=O)CC2)c1C | 3.87 |
| Cn1c(=O)[nH]c(=O)c2c1nc(NCc1ccco1)n2Cc1ccccc1Cl | 9.03 |
| COCCc1nc2ccc(C(=O)N(C)Cc3cccc(-n4nc(C)cc4C)c3)cc2o1 | -4.79 |
| COc1cccc(CN2CCCC(C(=O)c3ccccc3SC)C2)c1O (centres unmarked) | -76.9 |
| COc1cccc(N2CCN(C(=O)c3cc4cc(Cl)ccc4[nH]3)CC2)c1 | 9.88 |

| Structure (SMILES) | hERG current change (%, negative = inhibition) at 1uM [%] |
| --- | --- |
| CNc1nc(-c2ccccc2)nc(-c2ccc(OC)cc2)c1C#N | 8.86 |
| O=c1[nH]c2c(s1)C(c1ccc(O)cc1)C1C3CCC(C3)C1S2 (centres unmarked) | 8.69 |
| C(#Cc1ccccc1)Cn1nnc2ccccc21 | 4.3 |
| Cc1cc(OC(C(=O)O)c2ccccc2)c2c(C)c(Cc3ccccc3)c(=O)oc2c1 (centres unmarked) | 8.89 |
| Cc1c(C(=O)NC2CC2)oc2ccc(S(=O)(=O)N3CCCCCC3)cc12 | 10.7 |
| COc1cc(C(C)=O)ccc1OC(=O)CN1C(=O)c2ccccc2C1=O | 13.9 |
| COc1ccc(/C=N/NC(=O)C2(O)c3ccccc3-c3ccccc32)cc1 | 16.2 |
| CC1CCCC(NC(=O)CCNC(=O)c2ccc([N+](=O)[O-])cc2)C1C (centres unmarked) | -7.79 |
| O=C(NCc1ccccc1)c1ccc(CS(=O)Cc2ccc(Cl)cc2)o1 (centres unmarked) | 11.7 |
| C(#CCN1CCOCC1)COC/C=C/c1ccccc1.Cl | -0.386 |
| O=C(O)CCC(NS(=O)(=O)c1ccc(-c2ccccc2)cc1)C(=O)O (centres unmarked) | 12.5 |
| O=C(NN1CCOCC1)c1cc(-c2cccc(Cl)c2)nc2ccccc12 | -3.86 |
| O=C(/C=C/c1ccccc1)NCCc1nc2ccccc2[nH]1 | 1.93 |
| CCCn1c(Nc2ccc(Cl)cc2)nc2ccccc21 | 7.42 |
| O=NN(CCc1ccncc1)c1ccc(OCc2ccccc2)cc1 | -11.4 |
| Cc1cc2c(c(=O)n1CC1CCCO1)C(c1ccc3c(c1)OCO3)C(C#N)=C(N)O2 (centres unmarked) | -3.61 |
| O=C(O)CCn1cc(/C=C/C(=O)c2ccc(Cl)cc2)c(-c2cccc(Br)c2)n1 | 14.7 |
| CCc1ccccc1Nc1nc(N)nc(COC(=O)CCS(=O)(=O)c2ccccc2)n1 | 2.48 |
| N#C/C(=C/c1cccs1)c1nc2ccccc2[nH]1 | 4.74 |
| C[n+]1ccn(CC(=O)c2cc(C(C)(C)C)c(O)c(C(C)(C)C)c2)c1.[Br-] | 19 |
